# Values joined by “and” are separate entries in the source; they are usually repeats but may differ in a detail not shown here. Equal entries are not always repeated. The shares of active, inactive and inconclusive entries below differ from those in the screen. For part of these data: Potencies beside an inconclusive call are fits to weak or partial responses and may not hold up. Active and inactive are the calls of the source. Unless noted, the call rests on the fitted dose curve; in most records, active means well fitted curve in the direction sought with a large enough effect in the repeat runs; inconclusive means weak or mixed curves; inactive means no such curve, though single readings can be large; an effect the other way counts as inactive or inconclusive. *1 amine or outer side, *2 acyl side, *3 side chain or, on linkers, in order; H or OH if unused. Where a SMILES comes first, the peptide text is derived from it. Bridges are numbered along the chain shown (N, C = ends). Roman numbers before positions name the chains, in order. [ ]: non-standard residue; d: D form. Actinocin(9to1) = Cc1c2oc3c(C)ccc(C(=O)[*:1])c3nc-2c(C(=O)[*:2])c(N)c1=O; NMeV = CN[C@H](C(=O)O)C(C)C; Sar = CNCC(=O)O
# Columns and labels:
# [1] = qHTS assay to identify small molecule antagonists of the retinoid acid receptor (RAR) signaling pathway - cell viability counter screen (AID 1159551); further: potency means the concentration at half of the fitted maximal effect; nearly all actives have a fitted effect of over 35% in size
# Summary of the method: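 C3RL4 RARE-luciferase cells, 1,000/well, incubated overnight, then dosed with compound plus 1 uM retinol (final). After 6 hr at 37 C, viability read by CellTiter-Glo ATP luminescence following 30 min at room temperature.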
# [2] = qHTS assay to identify small molecule antagonists of the retinoic acid receptor (RAR) signaling pathway (AID 1159552; further: potency means the concentration at half of the fitted maximal effect; nearly all actives have a fitted effect of over 50% in size)
# Summary of the method: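 Luminescence from a RARE luciferase reporter in C3RL4 cells served as read-out. Cells received compounds together with 1 uM final retinol and incubated 6 hr at 37 C before detection reagent was added for 30 min at room temperature.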
# [3] = qHTS assay to identify small molecule antagonists of the estrogen related receptor (ERR) signaling pathway - cell viability counter screen (AID 1224818); further: potency means the concentration at half of the fitted maximal effect
# Summary of the method: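 ERR cells, 2,000 per well, compound added after 6 h and incubated 17.5 h at 37 C. Viability read by CellTiter-Fluor fluorescence after a further 30 min at 37 C.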
# [4] = qHTS assay to identify small molecule antagonists of the estrogen related receptor signaling pathway with the pleiotropic PPARgamma coactivator (PGC) cell viability counter screen (AID 1224822; further: on the % scale 0 is the no-effect control and ±100 the full control effect)
# Summary of the method: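 PGC/ERR cells rested 6 h, then compound-treated 17.5 h at 37 C. CellTiter-Fluor added for 30 min at 37 C, viability measured by fluorescence intensity.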
# [5] = target: Luciferin 4-monooxygenase (Photinus pyralis) (UniProt P08659); assay: qHTS assay to identify small molecule inhibitors of firefly luciferase (AID 1224835); further: nearly all actives have a fitted effect of over 25% in size; further: potency means the concentration at half of the fitted maximal effect
# Sequence of UniProt P08659 (P08659 whole entry, looked up): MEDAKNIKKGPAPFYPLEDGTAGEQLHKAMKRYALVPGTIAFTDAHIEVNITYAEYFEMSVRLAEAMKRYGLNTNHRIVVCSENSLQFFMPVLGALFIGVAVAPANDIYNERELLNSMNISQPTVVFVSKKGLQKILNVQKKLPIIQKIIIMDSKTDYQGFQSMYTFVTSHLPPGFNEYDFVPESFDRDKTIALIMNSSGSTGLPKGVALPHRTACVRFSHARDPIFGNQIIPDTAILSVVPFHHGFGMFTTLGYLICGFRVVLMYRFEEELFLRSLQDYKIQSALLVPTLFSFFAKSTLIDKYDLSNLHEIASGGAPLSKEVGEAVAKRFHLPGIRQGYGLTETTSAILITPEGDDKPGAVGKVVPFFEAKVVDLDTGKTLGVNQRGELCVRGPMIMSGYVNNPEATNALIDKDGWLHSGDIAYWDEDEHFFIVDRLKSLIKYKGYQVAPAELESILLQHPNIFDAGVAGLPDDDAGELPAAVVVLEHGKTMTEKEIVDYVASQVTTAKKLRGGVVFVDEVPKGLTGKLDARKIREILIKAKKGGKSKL
# Summary of the method: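 Inhibition of purified Photinus luciferase is measured by luminescence. Substrate levels (D-luciferin, ATP) sit at their KM values. Each compound is tested in a concentration series.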
# [6] = qHTS assay to identify small molecule agonists of the constitutive androstane receptor (CAR) signaling pathway - cell viability counter screen (AID 1224836); further: potency means the concentration at half of the fitted maximal effect; nearly all actives have a fitted effect of over 45% in size
# Summary of the method: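 Viability read-out: CellTiter-Fluor fluorescence after 23 h compound exposure at 37 C/5% CO2 in double-stable HepG2-CYP2B6-hCAR cells, with PK11195 present at 0.75 uM final; compounds tested in 15-point titration.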
# [7] = qHTS assay to identify small molecule antagonists of the constitutive androstane receptor (CAR) signaling pathway - cell viability counter screen (AID 1224837); further: potency means the concentration at half of the fitted maximal effect; nearly all actives have a fitted effect of over 45% in size
# Summary of the method: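 HepG2 cells stably carrying hCAR and CYP2B6-2.2kb reporter, stimulated with 50 nM CITCO and compounds at 15 concentrations for 23 h at 37 C. Viability measured by CellTiter-Fluor fluorescence.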
# [8] = target: Nuclear receptor subfamily 1 group I member 3 (Homo sapiens) (UniProt Q14994); assay: qHTS assay to identify small molecule agonists of the constitutive androstane receptor (CAR) signaling pathway (AID 1224839); further: potency means the concentration at half of the fitted maximal effect; nearly all actives have a fitted effect of over 15% in size
# Sequence of UniProt Q14994 (Q14994 whole entry, looked up): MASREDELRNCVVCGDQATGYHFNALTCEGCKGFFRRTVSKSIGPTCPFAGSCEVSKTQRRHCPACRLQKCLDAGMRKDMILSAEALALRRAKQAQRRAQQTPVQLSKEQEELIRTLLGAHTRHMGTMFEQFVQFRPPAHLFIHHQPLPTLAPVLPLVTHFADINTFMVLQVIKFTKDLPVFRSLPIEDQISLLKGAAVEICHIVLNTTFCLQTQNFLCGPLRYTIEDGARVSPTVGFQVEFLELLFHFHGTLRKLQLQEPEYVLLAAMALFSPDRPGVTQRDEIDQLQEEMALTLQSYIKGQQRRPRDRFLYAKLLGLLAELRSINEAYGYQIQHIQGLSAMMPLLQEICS
# Summary of the method: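 Luminescence read-out (ONE-Glo, 30 min, room temperature) from double-stable HepG2-CYP2B6-hCAR cells exposed 24 h to 15-point compound series in presence of 0.75 uM PK11195 final.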
# [9] = qHTS assay to identify small molecule antagonists of the estrogen related receptor signaling pathway with the pleiotropic PPARgamma coactivator (PGC) from Tox21 10K library - cell viability counter screen (AID 1224840; active means well fitted cell-killing curve with a large enough effect in the repeat runs, not every such curve was filed as active; inconclusive means weak or mixed curves, or effect the other way; inactive means no such curve, though single readings can be large or run the other way; further: potency means the concentration at half of the fitted maximal effect; nearly all actives have a fitted effect of over 40% in size)
# Summary of the method: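 PGC/ERR cells (2,000/well) plated 6 h, then compound-treated for 17.5 h at 37 C. Viability measured by CellTiter-Fluor fluorescence after 30 min at 37 C, multiplexed with the pathway assay.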
# [10] = target: Thyrotropin receptor (Homo sapiens) (UniProt P16473); assay: qHTS assay to identify small molecule agonists of the thyroid stimulating hormone receptor (TSHR) signaling pathway (AID 1224843; calls by dose curve; further: on the % scale 0 is the no-effect control and ±100 the full control effect; nearly all actives have a fitted effect of over 45% in size); details: TSHR-HEK293 cells, cAMP HTRF, agonist mode, 30 min; activation: at 92.4 µM (top of the series) unless noted
# Sequence of UniProt P16473 (P16473 whole entry, looked up): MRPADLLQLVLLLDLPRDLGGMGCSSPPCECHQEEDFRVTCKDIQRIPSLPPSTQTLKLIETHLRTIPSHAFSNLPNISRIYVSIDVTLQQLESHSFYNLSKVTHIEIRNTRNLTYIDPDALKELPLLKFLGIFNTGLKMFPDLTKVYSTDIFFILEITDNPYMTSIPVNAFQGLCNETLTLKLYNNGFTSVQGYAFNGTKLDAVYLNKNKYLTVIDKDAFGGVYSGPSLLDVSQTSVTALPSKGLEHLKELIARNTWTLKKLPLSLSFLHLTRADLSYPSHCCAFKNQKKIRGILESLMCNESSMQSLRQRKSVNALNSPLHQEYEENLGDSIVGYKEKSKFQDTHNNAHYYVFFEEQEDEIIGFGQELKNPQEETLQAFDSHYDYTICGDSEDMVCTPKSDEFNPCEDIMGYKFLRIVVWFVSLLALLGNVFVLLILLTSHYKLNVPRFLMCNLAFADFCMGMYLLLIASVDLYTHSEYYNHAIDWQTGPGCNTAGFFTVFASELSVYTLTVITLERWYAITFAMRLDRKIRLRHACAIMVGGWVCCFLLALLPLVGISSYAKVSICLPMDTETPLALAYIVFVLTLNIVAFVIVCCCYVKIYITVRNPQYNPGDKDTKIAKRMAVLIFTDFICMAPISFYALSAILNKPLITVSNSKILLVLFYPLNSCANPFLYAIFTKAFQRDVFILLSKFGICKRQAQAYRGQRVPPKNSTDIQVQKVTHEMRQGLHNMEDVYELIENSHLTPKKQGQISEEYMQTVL
# Summary of the method: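 HEK293 cells stably bearing the thyrotropin receptor were plated at 800 cells/well and challenged with compound (30 min, RT). Accumulated cAMP was quantified via cAMP-d2 competing for cryptate-tagged antibody.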
# [11] = qHTS assay to identify small molecule agonists of the hypoxia (HIF-1) signaling pathway - cell viability counter screen (AID 1224844; calls by dose curve; further: potency means the concentration at half of the fitted maximal effect; nearly all actives have a fitted effect of over 50% in size)
# Summary of the method: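 HRE-bla ME-180 cells, 2,000/well in 0.5% dialyzed FBS medium, treated 17 h at 37C with compounds. Viability read in the same wells as the bla reporter, by CellTiter-Glo luminescence after 30 min at room temperature.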
# Tags describe the fitted curve by direction and shape.
Structure (SMILES),Potency [1],Potency [2],Potency [3],Potency [4],Potency [5],Potency [6],Potency [7],Potency [8],Potency [9],activation [10],Potency [11]
Nc1ccc([N+](=O)[O-])cc1O,"inconclusive: 19.3 µM [rising, partial curve, poor fit]","inconclusive: 19.3 µM [inhibitor, partial curve]",inconclusive: 34.4 µM [cytotoxic],inactive,"inconclusive: 79.6 µM [inhibitor, partial curve, poor fit]","inconclusive: 17.2 µM [cytotoxic, full curve]","inconclusive: 27.3 µM [cytotoxic, partial curve]","inconclusive: 27.3 µM [activator, partial curve]",active: 30.6 µM,inconclusive: -0.901%,–
"Cc1c2oc3c(C)ccc(C(=O)N[C@@H]4C(=O)N[C@H](C(C)C)C(=O)N5CCC[C@H]5C(=O)N(C)CC(=O)N(C)[C@@H](C(C)C)C(=O)O[C@@H]4C)c3nc-2c(C(=O)N[C@@H]2C(=O)N[C@H](C(C)C)C(=O)N3CCC[C@H]3C(=O)N(C)CC(=O)N(C)[C@@H](C(C)C)C(=O)O[C@@H]2C)c(N)c1=O (I: T[dV]P[Sar][NMeV] / II: T[dV]P[Sar][NMeV]; ester I:1-I:C, II:1-II:C; linker I:N-II:N via Actinocin(9to1))","inconclusive: 6.7 nM [rising, full curve] and inconclusive: 37.6 nM [rising, full curve]",active: 16.8 nM and active: 10.6 nM,–,–,inactive,–,–,–,"inconclusive: 0.266 µM [cytotoxic, partial curve, poor fit]",–,"inconclusive: 23.9 µM [cytotoxic, partial curve, poor fit]"

# From PubChem BioAssay (Tox21)
